Measurements reported in the supplement of paper PMC3334620.
The full ranking holds about 33,000 sequences; the median of “E-score (-0.5 to 0.5)” is about -0.012, and the highest 2% start at about 0.29. The list shows a part of the results.

target: T1, Ybr033w (UniProt P38073); assay: PBM E-score (8-mer binding enrichment) (E-score (-0.5 to 0.5)); higher = stronger / more preferred TF binding; most listed sequences are background and not binding sites; settings: protein concentration: 200 nM; construct: GST-full length
T1 sequence: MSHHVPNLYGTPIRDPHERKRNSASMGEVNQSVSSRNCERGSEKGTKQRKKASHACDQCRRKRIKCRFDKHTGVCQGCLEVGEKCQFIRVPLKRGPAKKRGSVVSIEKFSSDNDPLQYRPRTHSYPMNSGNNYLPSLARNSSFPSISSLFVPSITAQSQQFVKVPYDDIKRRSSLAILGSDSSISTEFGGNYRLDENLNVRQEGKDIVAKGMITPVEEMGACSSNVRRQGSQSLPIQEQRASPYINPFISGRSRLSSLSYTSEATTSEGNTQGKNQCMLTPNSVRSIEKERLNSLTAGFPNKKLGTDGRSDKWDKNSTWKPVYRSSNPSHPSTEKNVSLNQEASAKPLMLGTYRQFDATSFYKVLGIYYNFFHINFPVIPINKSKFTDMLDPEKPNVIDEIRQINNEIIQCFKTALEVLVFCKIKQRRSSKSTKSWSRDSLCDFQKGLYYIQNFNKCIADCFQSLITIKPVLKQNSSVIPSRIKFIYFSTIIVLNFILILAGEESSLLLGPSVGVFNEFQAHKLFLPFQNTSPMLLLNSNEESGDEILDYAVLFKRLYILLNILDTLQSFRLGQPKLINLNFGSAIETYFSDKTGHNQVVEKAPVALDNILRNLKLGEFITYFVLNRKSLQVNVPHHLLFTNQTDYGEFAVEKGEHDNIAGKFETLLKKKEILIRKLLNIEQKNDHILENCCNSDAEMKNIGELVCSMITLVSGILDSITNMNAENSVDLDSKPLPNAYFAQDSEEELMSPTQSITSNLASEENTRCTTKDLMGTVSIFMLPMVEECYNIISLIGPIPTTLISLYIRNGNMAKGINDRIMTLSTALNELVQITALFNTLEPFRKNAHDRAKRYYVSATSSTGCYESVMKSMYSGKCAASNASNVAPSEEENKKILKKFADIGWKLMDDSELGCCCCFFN
Method in brief: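 For each ungapped eight-base word taken together with its reverse complement, the Universal PBM Analysis Suite assigned an E-score. Binding data came from GST-tagged yeast transcription factors, applied at about 100-200 nM, on universal all-10-mer Agilent arrays made double-stranded by primer extension. Fluorescent anti-GST marked bound protein, and scans were normalised with masliner.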

Sequence | PBM E-score
TAGAAAGA | -0.0722
ACTAGGAG | -0.098
AGAAGCGC | 0.0785
AATTGAAG | 0.0866
ACTCTTAC | 0.192
CGGTCCGA | -0.179
AAGTGTAG | 0.173
ATTTCAAA | 0.261
CCTCCGCC | -0.17
GGTGGGAA | 0.0106
AATAGCTG | 0.143
CACGCGCA | -0.155
CGAGATGC | -0.0539
ATCCTTGA | -0.0476
ATATCAGG | 0.134
AATTTCCG | 0.325
GGGACCCA | -0.31
ACCCTCAA | -0.0511
ATTGTCTC | 0.0961
TACTGTAA | 0.184
CGCCATGA | -0.0897
TGAAACCA | 0.174
CAACTCGA | -0.0402
CTATAGTA | 0.225
AGTAGGCG | -0.0436

Sequence | PBM E-score
ACGACTGA | 0.0854
CTCAAGCC | -0.281
CGGTGGAG | -0.182
CGGCCGAA | -0.148
GAGAGAGC | -0.202
AGCCTTAT | -0.0243
GACGGACA | -0.00901
GGGATCAA | 0.242
ATTATTTC | 0.332
AAGTAATT | 0.331
AGGCCGTG | -0.048
CACAACGC | -0.133
CCTCCCAG | -0.356
AGTAGCTA | 0.17
CTATCCAG | 0.062
GAATGCGA | 0.0817
GTTTCGGA | 0.123
GGTAGCAC | -0.289
AGCATACA | 0.163
CATGCGCC | -0.0898
AATTGCAA | 0.177
CCCAGCGC | -0.256
AATTGATG | 0.309
ATGACGTC | -0.0537
AACAGGTT | -0.00908

Sequence | PBM E-score
CAATCAGC | -0.0856
AGTTCATG | 0.208
AGGAGAAT | 0.134
ACTGCCAA | 0.013
AGTTGATC | 0.271
AGAATATC | 0.0705
ACGAACGA | -0.0121
AAGGTCTC | -0.0822
ATCTAAAC | -0.0292
GCAACGAA | 0.169
AACCCCTG | -0.328
TTCGCAAA | 0.225
AGACGTGA | -0.0528
CCGATAGG | -0.0168
AACTGAGC | -0.123
ATCAATGG | 0.0453
CGTCATGC | -0.168
GTTTGTGA | -0.00211
AGACATGG | -0.0858
CTTCGTAC | -0.103
GAATCCGA | -0.108
GATGTGGA | 0.193
AGGTGAAC | -0.0473
ACCTAACT | 0.152
CTACAAAC | 0.152

Sequence | PBM E-score
ATCATTCC | 0.203
CCTCAACG | -0.146
GACCCCCA | -0.428
CTAGCCAG | -0.145
AAGCACAA | 0.237
CAGCATTA | -0.059
AATCTCGC | 0.167
AACTTTTG | 0.084
GGCTATAC | -0.115
AAGGAGAG | -0.212
GCAATTAA | 0.138
ACGTGATC | 0.0816
ATGTTCGG | -0.00221
CAAACATA | 0.0885
AGACCAAA | 0.0316
CTATACTA | 0.0424
AACAGTTG | -0.0235
ACCCGCCT | -0.178
ATTAGCGC | 0.0942
AAGGACTC | -0.139
AAACGTAG | -0.0105
CGGAAACG | -0.0471
AGTGAGGG | -0.273
CTCCAGTC | -0.134
ACCTTTTG | -0.0505

Sequence | PBM E-score
ACGGCATA | 0.124
ATCCACTC | 0.215
TCGAGCCA | -0.142
CCTGGTTA | -0.0245
ATATCCGG | 0.164
ACAAATTG | 0.0817
TCTCAGCA | -0.128
GTACGCGA | -0.106
GCTATCAC | 0.0018
TGGCCACA | -0.0383
AGTAATCA | 0.0803
ATCCGTTA | 0.282
AGGATGCA | -0.0489
GAACGCAC | 0.0399
ACGTCCTA | -0.0749
CAAAGACA | 0.0541
TATTCGGA | 0.248
TGGGCGAA | -0.00265
CGACCGAC | -0.109
GAACCGGA | 0.152
CGCTGGGC | -0.235
ACAAATAA | 0.265
CCACTCGC | -0.125
CAGTCGGG | -0.172
TACGCACA | 0.0143

Sequence | PBM E-score
GGACCTGA | -0.203
AAAGCTAA | 0.0966
ATGCAGGG | -0.108
AGGTCCGC | -0.352
CGATCGCA | 0.0381
CTCTGAAC | -0.0896
CGGATGAC | -0.124
CGCATTGA | 0.0944
ATTCAGGG | -0.0016
CGTATTAC | 0.114
GAGTTTAA | 0.142
GACCCTAA | -0.03
CGCTTGAC | -0.141
AGGGGGAA | -0.298
AATCTAGT | 0.214
ACTTCTTC | 0.149
GAGCAAGC | -0.255
AACTACAG | 0.112
CCTGCTGA | 0.101
CCCCTCTA | -0.246
AAGGTCAC | -0.0509
TCAGAAAA | 0.0198
TACGGTGA | 0.0707
CGCCCTCC | -0.299
AGCGGGCC | -0.242

Sequence | PBM E-score
CTCTGCCC | -0.108
AAGGACTA | -0.0585
GCCAGGGC | -0.357
CGTTCACA | -0.031
CTCAGCAG | -0.134
AAGGTTGA | 0.205
CCGAACAA | 0.0727
CACCAGGA | 0.0347
CCCACTCG | -0.167
ACCTTTCC | 0.0278
ATTAGTTC | 0.224
CGAGGGGC | -0.388
CGCAGGAC | 0.05
CATATATG | 0.0464
TAGGCTGA | -0.0515
AAAAGTTG | 0.133
TAGGGCCA | -0.121
ACCGTCAG | -0.0456
CAAACTCA | 0.00685
CGCCAATC | -0.0599
CGCGACTA | -0.0358
GGCCCTGA | -0.176
